The subject of this test is A673/TR/shEF. The experiment in a line: cell viability (LOESS-normalised, relative to median of negative controls) (log2 ratio); higher = more viable cells (less compound effect), active = hit call of the paper (over 3 MAD below the median). Conditions: treatment time: 72 h. The method in brief:
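Doxycycline, present or absent from 24 h before compounds, was used to induce EWS-FLI1 shRNA knockdown in A673/TR/shEF Ewing sarcoma cells at 1,500 per well in 384-well plates. Cells then received library compounds at two or more concentrations, or DMSO controls, for three days. Viability was measured by CellTiter-Glo luminescence on an Envision reader, and per-plate LOESS correction, division by the negative-control median and log2 transformation followed.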

Setting [1] is: 0.25 µM, library screen: screen1, EWS-FLI1 expression: high (no doxycycline).
The mark [2] stands for this setting: 0.25 µM, library screen: screen1, EWS-FLI1 expression: low (doxycycline-induced shRNA knockdown).
Where [3] appears, read: 2.5 µM, library screen: screen1, EWS-FLI1 expression: high (no doxycycline).
The mark [4] stands for this setting: 2.5 µM, library screen: screen1, EWS-FLI1 expression: low (doxycycline-induced shRNA knockdown).
Where [5] appears, read: 0.25 µM, library screen: screen2, EWS-FLI1 expression: high (no doxycycline).
Setting [6] is: 0.25 µM, library screen: screen2, EWS-FLI1 expression: low (doxycycline-induced shRNA knockdown).
The mark [7] stands for this setting: 2.5 µM, library screen: screen2, EWS-FLI1 expression: high (no doxycycline).
[8] abbreviates: 2.5 µM, library screen: screen2, EWS-FLI1 expression: low (doxycycline-induced shRNA knockdown).
Setting [9] is: 0.103 µM, library screen: screen3, EWS-FLI1 expression: high (no doxycycline).
[10] abbreviates: 0.103 µM, library screen: screen3, EWS-FLI1 expression: low (doxycycline-induced shRNA knockdown).
The mark [11] stands for this setting: 0.308 µM, library screen: screen3, EWS-FLI1 expression: high (no doxycycline).
Where [12] appears, read: 0.308 µM, library screen: screen3, EWS-FLI1 expression: low (doxycycline-induced shRNA knockdown).
Where [13] appears, read: 0.926 µM, library screen: screen3, EWS-FLI1 expression: high (no doxycycline).
Where [14] appears, read: 0.926 µM, library screen: screen3, EWS-FLI1 expression: low (doxycycline-induced shRNA knockdown).
[15] abbreviates: 2.8 µM, library screen: screen3, EWS-FLI1 expression: high (no doxycycline).
Setting [16] is: 2.8 µM, library screen: screen3, EWS-FLI1 expression: low (doxycycline-induced shRNA knockdown).
Setting [17] is: 8.3 µM, library screen: screen3, EWS-FLI1 expression: high (no doxycycline).
The mark [18] stands for this setting: 8.3 µM, library screen: screen3, EWS-FLI1 expression: low (doxycycline-induced shRNA knockdown).
The mark [19] stands for this setting: 25 µM, library screen: screen3, EWS-FLI1 expression: high (no doxycycline).
[20] abbreviates: 25 µM, library screen: screen3, EWS-FLI1 expression: low (doxycycline-induced shRNA knockdown).

Hit rate of the full screen: of about 3,200 compounds, about 300 (9.4%) showed activity. Only a part is listed here, and it is no random draw.

As for `O=C(c1ccc(O)cc1)c1ccc(O)cc1O`, the “cell viability (log2)” value runs as follows: under setting [1], inactive: 0.0946; under setting [2], inactive: 0.0115; under setting [3], inactive: 0.164; under setting [4], inactive: 0.0705.
`CCN(CC)CCCCCCCCOC(=O)c1cc(OC)c(OC)c(OC)c1`: the “cell viability (log2)” value by setting is: under setting [5], inactive: 0.168; under setting [6], inactive: 0.124; under setting [7], inactive: 0.116; under setting [8], inactive: 0.102.
The like results for `CC(C)(C)NCC(O)COc1cccc2[nH]c(=O)[nH]c12` (stereo not given) were, in that order, inactive: 0.0589, inactive: 0.059, inactive: 0.0885 and inactive: 0.0495.
For `O=C(c1ccccc1)c1ccc2n1CCC2C(=O)O` (stereo not given), the “cell viability (log2)” value is inactive: -0.0478 under setting [9]; inactive: 0.0104 under setting [10]; inactive: 0.0623 under setting [1]; inactive: -0.0725 under setting [2]; inactive: 0.148 under setting [5]; inactive: 0.14 under setting [6]. The “cell viability (log2)” value reads like this: under setting [11], inactive: 0.134; under setting [12], inactive: 0.145; under setting [13], inactive: 0.136; under setting [14], inactive: 0.0768; under setting [3], inactive: 0.0968; under setting [4], inactive: 0.0484. Also, the “cell viability (log2)” value reads like this: under setting [7], inactive: 0.129; under setting [8], inactive: 0.15; under setting [15], inactive: 0.0954; under setting [16], inactive: 0.0231; under setting [17], inactive: 0.0775; under setting [18], inactive: 0.1. Moreover, the “cell viability (log2)” value under setting [19] is inactive: 0.0572 and the “cell viability (log2)” value under setting [20] was inactive: 0.0838.
Consider `COc1c(N2CCNC(C)C2)c(F)cc2c(=O)c(C(=O)O)cn(C3CC3)c12` (stereo not given), for which the “cell viability (log2)” value reads like this: under setting [9], inactive: -0.0448; under setting [10], inactive: 0.0614; under setting [11], inactive: 0.0837; under setting [12], inactive: 0.0631; under setting [13], inactive: -0.0168; under setting [14], inactive: 0.0143. Also, the “cell viability (log2)” value reads like this: under setting [15], inactive: 0.0878; under setting [16], inactive: 0.0825; under setting [17], inactive: 0.111; under setting [18], inactive: 0.0829; under setting [19], inactive: 0.159; under setting [20], inactive: 0.0854.
As for `OCc1ccccc1O`, the “cell viability (log2)” value is inactive: 0.052 under setting [1], inactive: 0.0788 under setting [2], inactive: 0.134 under setting [3] and inactive: 0.143 under setting [4].
With `COc1ccc(S(=O)(=O)N(CCO)c2ccccc2CN(C)C/C=C/c2ccc(Cl)cc2)cc1`, the “cell viability (log2)” value was inactive: 0.202 (0.025 µM, library screen: screen1, EWS-FLI1 expression: high (no doxycycline)); inactive: -0.0138 (0.025 µM, library screen: screen1, EWS-FLI1 expression: low (doxycycline-induced shRNA knockdown)); inactive: 0.226 under setting [1]; inactive: 0.0804 under setting [2]; active: -0.284 under setting [3]; inactive: -0.0574 under setting [4]. Besides, the “cell viability (log2)” value was active: -1.32 (25 µM, library screen: screen1, EWS-FLI1 expression: high (no doxycycline)) and active: -0.531 (25 µM, library screen: screen1, EWS-FLI1 expression: low (doxycycline-induced shRNA knockdown)).
Take `CC(C)CCCC(C)C1CCC2C3CCC4CC(=O)CCC4(C)C3CCC12C` (stereo not given): the “cell viability (log2)” value under setting [1] was inactive: 0.027, the “cell viability (log2)” value under setting [2] is inactive: 0.0292, the “cell viability (log2)” value under setting [3] is inactive: 0.169 and the “cell viability (log2)” value under setting [4] is inactive: 0.017.
With `CC1(C)CC2C1CCC1(C)OC2(C)CCC1O` (stereo not given), the “cell viability (log2)” value by setting is: under setting [1], inactive: 0.00397; under setting [2], inactive: -0.0939; under setting [3], inactive: 0.0714; under setting [4], inactive: 0.0268.
The like results for `CC1(C)C(=O)[C@@H]2C[C@@]3(O)C4=CC(=O)O[C@@H](c5ccoc5)[C@]4(C)CCC3C(C)(C2=O)[C@H]1CC(=O)O` (stereo not given in full) were, in that order, inactive: 0.0688, inactive: 0.13, inactive: 0.086 and inactive: 0.0264.
On to `COc1cccc(C(=O)NCCN2CCN(c3ccc(Cl)cc3)CC2)c1`, for which the “cell viability (log2)” value under setting [5] is inactive: 0.184, the “cell viability (log2)” value under setting [6] is inactive: 0.2, the “cell viability (log2)” value under setting [7] was inactive: 0.0849 and the “cell viability (log2)” value under setting [8] is inactive: 0.0867.
Turning to `CC(=O)Oc1ccc2c(c1)CCC1C2CCC2(C)C(=O)CCC12` (stereo not given), the “cell viability (log2)” value is, setting by setting: under setting [1], inactive: 0.0434; under setting [2], inactive: -0.0193; under setting [3], inactive: 0.146; under setting [4], inactive: 0.0428.
The like results for `NS(=O)(=O)c1ccc(-c2ccc(/C=C3/SC(=S)N(C4CCCCC4)C3=O)o2)cc1` were, in that order, inactive: 0.109, inactive: 0.0623, inactive: 0.167 and inactive: -0.0331.
As to `CN1Cc2c(N)cccc2C(c2ccccc2)C1` (stereo not given), the “cell viability (log2)” value under setting [5] is inactive: 0.0977, the “cell viability (log2)” value under setting [6] is inactive: 0.0671, the “cell viability (log2)” value under setting [7] is inactive: 0.0792 and the “cell viability (log2)” value under setting [8] is inactive: 0.0734.
For `CN(C)C/C=C/C(=O)Nc1cc2c(Nc3ccc(F)c(Cl)c3)ncnc2cc1O[C@H]1CCOC1`, the “cell viability (log2)” value was active: -1.35 under setting [19] and active: -1 under setting [20].
As for `CSCCC(NC=O)C(=O)NC(CC(C)C)C(=O)NC(Cc1ccccc1)C(=O)O` (stereo not given), the “cell viability (log2)” value reads like this: under setting [1], inactive: 0.0125; under setting [2], inactive: 0.0891; under setting [3], inactive: 0.0974; under setting [4], inactive: 0.0808.
`N#Cc1c2c(c(NCCCO)n3c1nc1ccccc13)CCC2`: the “cell viability (log2)” value is inactive: 0.146 under setting [1], inactive: 0.012 under setting [2], inactive: 0.0888 under setting [3] and inactive: -0.0597 under setting [4].
Turning to `CCCN(CCc1ccccc1)C1CCc2c(O)cccc2C1` (stereo not given), the “cell viability (log2)” value is, setting by setting: under setting [5], inactive: 0.155; under setting [6], inactive: 0.0701; under setting [7], inactive: 0.202; under setting [8], inactive: 0.0389.
For the compound `CCOc1c(Br)cc(C=C(C#N)c2nn(-c3ccccc3)c(N)c2C#N)cc1OC`, the “cell viability (log2)” value was inactive: 0.0856 under setting [1], inactive: 0.124 under setting [2], inactive: 0.0719 under setting [3] and inactive: 0.193 under setting [4].
The like results for `C=CCSCC1Nc2cc(Cl)c(S(N)(=O)=O)cc2S(=O)(=O)N1` (stereo not given) were, in that order, inactive: 0.0566, inactive: 0.0785, inactive: 0.164 and inactive: 0.197.
Regarding `NC(=O)c1cccc(N)c1`, the “cell viability (log2)” value is inactive: 0.0854 (0.025 µM, library screen: screen2, EWS-FLI1 expression: high (no doxycycline)); inactive: 0.0286 (0.025 µM, library screen: screen2, EWS-FLI1 expression: low (doxycycline-induced shRNA knockdown)); inactive: 0.13 under setting [1]; inactive: 0.119 under setting [2]; inactive: 0.0163 under setting [5]; inactive: 0.0531 under setting [6]. In addition, the “cell viability (log2)” value is inactive: 0.159 under setting [3]; inactive: 0.058 under setting [4]; inactive: 0.0872 under setting [7]; inactive: 0.0704 under setting [8]; inactive: 0.0853 (25 µM, library screen: screen2, EWS-FLI1 expression: high (no doxycycline)); inactive: 0.059 (25 µM, library screen: screen2, EWS-FLI1 expression: low (doxycycline-induced shRNA knockdown)).
Turning to `C=C1CCC2C(CC2(C)C)C(=C)CCC1=NO` (stereo not given), the “cell viability (log2)” value is, setting by setting: under setting [1], inactive: 0.105; under setting [2], inactive: 0.00367; under setting [3], inactive: 0.133; under setting [4], inactive: 0.0769.
Consider `CC(=O)Oc1ccc(-c2coc3cc(OC(C)=O)ccc3c2=O)cc1`, for which the “cell viability (log2)” value was inactive: 0.152 under setting [1], inactive: 0.0716 under setting [2], inactive: 0.0709 under setting [3] and inactive: 0.0455 under setting [4].
On to `CCN(c1nc(N)c(C(=O)N=C(N)N)nc1Cl)C(C)C`, for which the “cell viability (log2)” value under setting [5] was inactive: 0.177, the “cell viability (log2)” value under setting [6] was inactive: 0.139, the “cell viability (log2)” value under setting [7] is inactive: 0.148 and the “cell viability (log2)” value under setting [8] was inactive: 0.132.
On to `c1ccc(CN(CC2=NCCN2)c2ccccc2)cc1`, for which the “cell viability (log2)” value was inactive: 0.132 under setting [1], inactive: 0.106 under setting [2], inactive: 0.116 under setting [3] and inactive: 0.19 under setting [4].
Take `CN(C)CC/C=C1/c2ccccc2COc2ccc(CC(=O)O)cc21`: the “cell viability (log2)” value runs as follows: under setting [9], inactive: 0.0714; under setting [10], inactive: 0.0905; under setting [11], inactive: 0.0643; under setting [12], inactive: 0.117; under setting [13], inactive: 0.113; under setting [14], inactive: 0.0761. Also, the “cell viability (log2)” value is, setting by setting: under setting [15], inactive: 0.0348; under setting [16], inactive: 0.0276; under setting [17], inactive: 0.115; under setting [18], inactive: 0.0583; under setting [19], inactive: 0.106; under setting [20], inactive: 0.116.
Consider `O=C(O)C1=CCCN(CCON=C(c2ccccc2)c2ccccc2)C1`, for which the “cell viability (log2)” value is inactive: 0.0519 under setting [5], inactive: 0.0703 under setting [6], inactive: 0.0659 under setting [7] and inactive: 0.119 under setting [8].

The record behind these values is the supplement of paper PMC6089552.
